In PubChem BioAssay AID1625 (Sanford-Burnham Center for Chemical Genomics, 2009):
The other results are listed elsewhere or left out. These are further read-outs of the screen, such as a control signal, another cell line or another target. No call is given for them. Compounds called inactive in the main read-out are mostly missing here.

Assay: up-regulation of insulin promoter-GFP reporter – imaging, high-content screening, mouse beta cells (AID 1625);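 also: total cells summed across four imaged fields per well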
Conditions: MIN6 insulin promoter-GFP reporter, measured here: cytotoxicity, nuclei count, at 5 µM

Structure (SMILES)	cell count [cells]
FC(F)(F)c1ccc2c(c1)N(CCCN1CCN(CCCl)CC1)c1ccccc1S2	458
CCOc1ccc(-c2c(C)n(-c3ccc(OCC)cc3)c3[n+]2CCCCC3)cc1	272
CCCCCCn1c(O)c(C=Nc2ccccc2N2CCOCC2)c(=O)[nH]c1=S	1030
Cc1ccccc1NC1=NCC(C)S1 (centres undefined)	440
Cc1nc2cc(C(F)(F)F)ccc2n1C1CCN(Cc2nnnn2CCc2ccccc2)CC1	383
CCN(CC)C1=NC(=[N+](CC)CC)c2ccccc21	443
CCn1nc(-c2cccs2)nc2c(=O)n(C)c(=O)nc1-2	469
C=CCN1C(=O)/C(=C\c2ccc(N3CCOCC3)o2)C(=O)NC1=S	1270
Nc1cc2nc3ccccc3nc2cc1N	1360
Nc1c([N+](=O)[O-])cc(F)c(N2CCNCC2)c1Br	490
Cc1cc2c(C(F)(F)F)cc(=O)oc2c2c1NCCC2	1580
N=c1c2c(n(Cc3ccc(Cl)cc3Cl)c3c1CCC3)CCCC2	348
COc1cc2c(cc1OC)[C@@H]1C(=O)c3ccc4c(c3O[C@@H]1CO2)C[C@H](C(C)C)O4	477
CCn1nc(-c2ccccc2)nc2c(=O)n(C)c(=O)nc1-2	322
CN1CC=C2C(C#N)=C(N)C(C#N)(C#N)C(c3ccncc3)C2C1 (centres undefined)	1110
CCOC(=O)C1C(=O)NC2(C)CC1c1cc(OC)ccc1O2 (centres undefined)	305
CCCCCCCCCOc1ccc2[nH]cc(CCN)c2c1	341
CN(C)c1ccc(-[n+]2c(-c3ccccc3)cc(-c3ccccc3)cc2-c2ccccc2)cc1	315
CN1/C(=C\C=C\C2=[N+](C)c3ccc4ccccc4c3C2(C)C)C(C)(C)c2ccccc21	208
CC(=O)OC[C@]12CCC(C)=C[C@H]1O[C@@H]1[C@H](O)[C@@H](OC(C)=O)[C@@]2(C)[C@]12CO2	242
COc1ccc(CC(=O)N2CCN(C)CC2)cc1	1500
CN1C(=O)C(=Cc2ccc(N3CCCCC3)o2)C(=O)N(C)C1=S	1420
CC1CCCC(C2(O)C(=O)Nc3ccccc32)C1=O (centres undefined)	1330
CN=C(SCc1cc2c(cc1Cl)OCO2)c1c(O)n(C)c(=O)n(C)c1=O	420
Cc1nc2nc(SCC(=O)N3CCC4(CC3)OCCO4)nn2c(C)c1Cc1ccccc1	360
CC1=CC(=Cc2sc3ccccc3[n+]2C)C=C(C)O1	267
O=C(/C=C/c1c[nH]c2ccccc12)c1c(O)n(CCc2ccccc2)c(=O)[nH]c1=O	1170
CCCCn1c(O)c(C(=O)/C=C/c2c[nH]c3ccccc23)c(=O)[nH]c1=O	904
Cc1cc(OC(=O)c2ccco2)c2c3c(c(=O)oc2c1)CCCC3	367
